# The other results are listed elsewhere or left out.
# B1: BC2LB (Burholderia cenocepacia), B4EH85_BURCJ (protein)
# chain: MGSSHHHHHHSSGENLYFQGHMSQPFTHDDLYALLQLAGNDATAVQANGDQAVLDRMRQFMTAQLVEKLPQYDVFVDIATIPYSFDVGSWQNKVKTDAAGEVVACTVTWAGAPGVLPGAAAKFGVGAVVNYFSKATPH
# Experiments:
# Assay in all cases: glycan array binding signal (z-score within array); higher = stronger binding
# Conditions in all cases: glycan notation: IUPAC condensed, linker removed
# [1] = target: Fuc(a1-2)[GalNAc(a1-3)]Gal(b1-3)GlcNAc(b1-3)GalNAc
# Outline: (§1)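 Negative Z-scores can be read as non-binding. The Z-score is calculated within each array and then averaged across arrays of one protein sequence at different concentrations or buffers and across linkers. Arrays, 3228 in all, were curated from the Consortium for Functional Glycomics database and kept only where the protein sequence was available.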
# [2] = target: Fuc(a1-2)[GalNAc(a1-3)]Gal(b1-3)GlcNAc(b1-6)GalNAc
# Outline: as §1
# [3] = target: Fuc(a1-2)[GalNAc(a1-3)]Gal(b1-4)Glc
# Outline: as §1
# [4] = target: Fuc(a1-2)[GalNAc(a1-3)]Gal(b1-4)GlcNAc
# Outline: as §1
# [5] = target: Fuc(a1-2)[GalNAc(a1-3)]Gal(b1-4)GlcNAc(b1-2)Man
# Outline: as §1
# [6] = target: Fuc(a1-2)[GalNAc(a1-3)]Gal(b1-4)GlcNAc(b1-2)Man(a1-3)[Fuc(a1-2)[GalNAc(a1-3)]Gal(b1-4)GlcNAc(b1-2)Man(a1-6)]Man(b1-4)GlcNAc(b1-4)GlcNAc
# Outline: as §1
# [7] = target: Fuc(a1-2)[GalNAc(a1-3)]Gal(b1-4)GlcNAc(b1-2)Man(a1-3)[Fuc(a1-2)[GalNAc(a1-3)]Gal(b1-4)GlcNAc(b1-2)Man(a1-6)]Man(b1-4)GlcNAc(b1-4)[Fuc(a1-6)]GlcNAc
# Outline: as §1
# [8] = target: Fuc(a1-2)[GalNAc(a1-3)]Gal(b1-4)GlcNAc(b1-3)Gal(b1-4)GlcNAc
# Outline: as §1
# [9] = target: Fuc(a1-2)[GalNAc(a1-3)]Gal(b1-4)GlcNAc(b1-3)Gal(b1-4)GlcNAc(b1-3)Gal(b1-4)GlcNAc
# Outline: as §1
# [10] = target: Fuc(a1-2)[GalNAc(a1-3)]Gal(b1-4)GlcNAc(b1-3)GalNAc
# Outline: as §1
# [11] = target: Fuc(a1-2)[GalNAc(a1-3)]Gal(b1-4)GlcNAc(b1-3)[Fuc(a1-2)[GalNAc(a1-3)]Gal(b1-4)GlcNAc(b1-6)]GalNAc
# Outline: as §1
# [12] = target: Fuc(a1-2)[GalNAc(a1-3)]Gal(b1-4)GlcNAc(b1-6)GalNAc
# Outline: as §1
# [13] = target: Fuc(a1-2)[GalNAc(a1-3)]Gal(b1-4)[Fuc(a1-3)]GlcNAc
# Outline: as §1
# [14] = target: Fuc(a1-2)[GalNAc(a1-3)]Gal(b1-4)[Fuc(a1-3)]GlcNAc(b1-3)GalNAc
# Outline: as §1
# [15] = target: Fuc(a1-2)[GalNAc(a1-4)]Gal(b1-4)GlcNAc
# Outline: as §1
# [16] = target: Fuc(a1-2)[GalNAc(b1-3)]Gal
# Outline: as §1
# [17] = target: Fuc(a1-3)GlcNAc
# Outline: as §1
# [18] = target: Fuc(a1-3)[Gal(b1-4)]Glc6S
# Outline: as §1
# [19] = target: Fuc(a1-3)[Gal(b1-4)]GlcNAc
# Outline: as §1
# [20] = target: Fuc(a1-3)[Gal(b1-4)]GlcNAc(b1-2)Man
# Outline: as §1
# [21] = target: Fuc(a1-3)[Gal(b1-4)]GlcNAc(b1-2)Man(a1-3)[Fuc(a1-3)[Gal(b1-4)]GlcNAc(b1-2)Man(a1-6)]Man(b1-4)GlcNAc(b1-4)GlcNAc
# Outline: as §1
# [22] = target: Fuc(a1-3)[Gal(b1-4)]GlcNAc(b1-2)Man(a1-3)[Fuc(a1-3)[Gal(b1-4)]GlcNAc(b1-2)Man(a1-6)]Man(b1-4)GlcNAc(b1-4)[Fuc(a1-6)]GlcNAc
# Outline: as §1
# [23] = target: Fuc(a1-3)[Gal(b1-4)]GlcNAc(b1-3)Gal(b1-3)[Fuc(a1-4)]GlcNAc
# Outline: as §1
# [24] = target: Fuc(a1-3)[Gal(b1-4)]GlcNAc(b1-3)Gal(b1-4)[Fuc(a1-3)]GlcNAc
# Outline: as §1
# [25] = target: Fuc(a1-3)[Gal(b1-4)]GlcNAc(b1-3)Gal(b1-4)[Fuc(a1-3)]GlcNAc(b1-3)Gal(b1-4)[Fuc(a1-3)]GlcNAc
# Outline: as §1
# [26] = target: Fuc(a1-3)[Gal(b1-4)]GlcNAc(b1-3)GalNAc
# Outline: as §1
# [27] = target: Fuc(a1-3)[Gal(b1-4)]GlcNAc(b1-6)GalNAc
# Outline: as §1
# [28] = target: Fuc(a1-3)[Gal(b1-4)]GlcNAc(b1-6)[Gal(b1-3)GlcNAc(b1-3)]Gal(b1-4)Glc
# Outline: as §1
# [29] = target: Fuc(a1-3)[Gal(b1-4)]GlcNAc6S
# Outline: as §1
# [30] = target: Fuc(a1-3)[Gal3S(b1-4)]Glc
# Outline: as §1
# [31] = target: Fuc(a1-3)[Gal3S(b1-4)]GlcNAc
# Outline: as §1
# [32] = target: Fuc(a1-3)[Gal3S(b1-4)]GlcNAc6S
# Outline: as §1
# [33] = target: Fuc(a1-3)[GalNAc(b1-4)]GlcNAc
# Outline: as §1
# [34] = target: Fuc(a1-3)[GalNAc(b1-4)]GlcNAc6S
# Outline: as §1
# [35] = target: Fuc(a1-4)GlcNAc
# Outline: as §1
# [36] = target: Fuc(b1-3)GlcNAc
# Outline: as §1
# [37] = target: Gal(a1-2)Gal
# Outline: as §1
# [38] = target: Gal(a1-3)Gal
# Outline: as §1
# [39] = target: Gal(a1-3)Gal(b1-3)GlcNAc
# Outline: as §1
# [40] = target: Gal(a1-3)Gal(b1-3)GlcNAc(b1-2)Man
# Outline: as §1
# [41] = target: Gal(a1-3)Gal(b1-3)GlcNAc(b1-2)Man(a1-3)[Gal(a1-3)Gal(b1-3)GlcNAc(b1-2)Man(a1-6)]Man(b1-4)GlcNAc(b1-4)GlcNAc
# Outline: as §1
# [42] = target: Gal(a1-3)Gal(b1-3)GlcNAc(b1-3)GalNAc
# Outline: as §1
# [43] = target: Gal(a1-3)Gal(b1-3)GlcNAc(b1-6)GalNAc
# Outline: as §1
# [44] = target: Gal(a1-3)Gal(b1-3)[Fuc(a1-4)]GlcNAc(b1-2)Man(a1-3)[Gal(a1-3)Gal(b1-3)[Fuc(a1-4)]GlcNAc(b1-2)Man(a1-6)]Man(b1-4)GlcNAc(b1-4)GlcNAc
# Outline: as §1
# [45] = target: Gal(a1-3)Gal(b1-4)Glc
# Outline: as §1
binder,measurement,setting,value
B1,glycan array binding signal (z-score),[1],-0.048
same,glycan array binding signal (z-score),[2],7.53
same,glycan array binding signal (z-score),[3],-0.25
same,glycan array binding signal (z-score),[4],-0.261
same,glycan array binding signal (z-score),[5],-0.324
same,glycan array binding signal (z-score),[6],-0.13
same,glycan array binding signal (z-score),[7],-0.205
same,glycan array binding signal (z-score),[8],-0.305
same,glycan array binding signal (z-score),[9],-0.176
same,glycan array binding signal (z-score),[10],-0.332
same,glycan array binding signal (z-score),[11],-0.198
same,glycan array binding signal (z-score),[12],-0.328
same,glycan array binding signal (z-score),[13],-0.178
same,glycan array binding signal (z-score),[14],-0.157
same,glycan array binding signal (z-score),[15],-0.275
same,glycan array binding signal (z-score),[16],-0.359
same,glycan array binding signal (z-score),[17],0.096
same,glycan array binding signal (z-score),[18],0.068
same,glycan array binding signal (z-score),[19],-0.296
same,glycan array binding signal (z-score),[20],-0.077
same,glycan array binding signal (z-score),[21],0.016
same,glycan array binding signal (z-score),[22],-0.1
same,glycan array binding signal (z-score),[23],-0.314
same,glycan array binding signal (z-score),[24],0.662
same,glycan array binding signal (z-score),[25],-0.356
same,glycan array binding signal (z-score),[26],0.001
same,glycan array binding signal (z-score),[27],-0.077
same,glycan array binding signal (z-score),[28],-0.215
same,glycan array binding signal (z-score),[29],-0.173
same,glycan array binding signal (z-score),[30],0.255
same,glycan array binding signal (z-score),[31],0.129
same,glycan array binding signal (z-score),[32],0.079
same,glycan array binding signal (z-score),[33],0.115
same,glycan array binding signal (z-score),[34],-0.312
same,glycan array binding signal (z-score),[35],2.88
same,glycan array binding signal (z-score),[36],1.63
same,glycan array binding signal (z-score),[37],0.111
same,glycan array binding signal (z-score),[38],-0.295
same,glycan array binding signal (z-score),[39],-0.247
same,glycan array binding signal (z-score),[40],-0.192
same,glycan array binding signal (z-score),[41],-0.246
same,glycan array binding signal (z-score),[42],0.797
same,glycan array binding signal (z-score),[43],-0.293
same,glycan array binding signal (z-score),[44],-0.183
same,glycan array binding signal (z-score),[45],-0.189

# — the supplement of paper PMC8728848
